Data: paper PMC7660914 (Microbiology, 2020)

Target: T1, H6 flagella (polymeric FliC flagellin) of E. coli O127:H6 (E. coli O127:H6, UniProt B7USU2 1-548)
T1 sequence: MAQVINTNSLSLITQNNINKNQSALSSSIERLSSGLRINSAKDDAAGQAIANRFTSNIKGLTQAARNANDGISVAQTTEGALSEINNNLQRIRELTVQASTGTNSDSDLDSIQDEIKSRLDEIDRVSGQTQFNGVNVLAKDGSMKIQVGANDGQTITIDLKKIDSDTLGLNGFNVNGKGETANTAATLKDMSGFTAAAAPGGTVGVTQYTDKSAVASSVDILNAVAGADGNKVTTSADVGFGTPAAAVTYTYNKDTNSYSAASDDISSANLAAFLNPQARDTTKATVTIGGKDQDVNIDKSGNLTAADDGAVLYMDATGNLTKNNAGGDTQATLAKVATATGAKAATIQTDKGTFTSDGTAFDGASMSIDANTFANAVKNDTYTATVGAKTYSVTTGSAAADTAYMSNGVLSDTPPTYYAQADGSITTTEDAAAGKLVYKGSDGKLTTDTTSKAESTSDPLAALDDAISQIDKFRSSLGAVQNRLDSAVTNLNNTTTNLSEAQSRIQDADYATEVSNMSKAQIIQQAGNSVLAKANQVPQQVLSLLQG
Assay: ELISA
Conditions: both partners purified

B1: recombinant human cofilin-1 (natural protein)
chain: not shown
notes: also called CFL1; CFL
Q: Does B1 bind?
A: Result: binds
